Test results from PMC12136788.
The other results are listed elsewhere or left out.

T1: UNK ZnF1-3 (human, UniProt Q9C0B0 31-174)
T1 sequence: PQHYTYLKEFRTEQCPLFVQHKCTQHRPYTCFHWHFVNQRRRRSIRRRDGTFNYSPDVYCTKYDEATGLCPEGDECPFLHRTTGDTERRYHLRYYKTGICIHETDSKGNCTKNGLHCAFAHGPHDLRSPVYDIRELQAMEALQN

B1: chr4:25749455:25749456:-_ENSG00000091490_ENST00000264868|hu_hu|hu_hu_hu_mus_False|18_58 (ssRNA)
RNA: GGGAGUUCUACAGUCCGACGAUCGCACUAUGACCUCUAGAAAAAUCCACAGGGGGAAAAAAUGUAAACCAAUGUACAAAGCUAUUGCCUUCCCUGUGUGUGGAGUGUUUGUCUCAAUAUUUCAAGGAGCUGCUGGAUUUGGGACAACAGAGGAUUGAGCAUCA
B2: chr4:76721835:76721836:+_ENSG00000138768_ENST00000264904|hu_mus|hu_hu_hu_mus_True|1_88 (ssRNA)
RNA: GGGAGUUCUACAGUCCGACGAUCGUUUGGCUGGGGUUUCUGAGACGUCUGGAAUACUAACUCAUGUUUGCUAAUAAAUCCUAGUUUCUCUAUGAAAUUCUCUUUGCCAAUCCUCUUCUCUAUUAGUUGCUUUAGUUCUCUUUCCAACAGAGGAUUGAGCAUCA
B3: chr1:35579700:35579701:+_ENSG00000197056_ENST00000373330|hu_hu|FALSE|FALSE (ssRNA)
RNA: GGGAGUUCUACAGUCCGACGAUCGAACAAAGAACUGAGAGUUUUUAGAGCACUUCGGAGUUCUUUUACUUCUUUACAAAACCUAAUUAUUGAUAAAUCCAAAAAGUGUGCAUAACAAUGUAUGUAUAAAGCUCUUGGUUCUUCCAACAGAGGAUUGAGCAUCA
B4: 97049045_97049165_90_5pUTR_ENSMUSG00000001440_ENSMUST00000001479|mouse|control|control (ssRNA)
RNA: GGGAGUUCUACAGUCCGACGAUCUGCCUCUGGCCAGGCGCUCCGGCUCCCCUUCCUCCCCGCUCUCCUUCCUUCCUUCCGCCCUCCUAAUGUGCUAGGCGGCAGCAGCUGCUCCUCUGGCGGCGGGGGAGGGACCCCGGGGGCCAACAGAGGAUUGAGCAUCA
B5: chr16:17428906:17428907:+_ENSMUSG00000022765_ENSMUST00000023449|mus_mus|FALSE|FALSE (ssRNA)
RNA: GGGAGUUCUACAGUCCGACGAUCGAACAGAAGAUGGGGAUAGGGACAAUGAAGGCAACACAUUUCCGUUCUGUAUGAACAUGGAUCCUUUUCAGGGGAGAGAGCUGCCAUGUGCUCAGUGUGUGUGCAGGCAUGUCCACAAGACAACAGAGGAUUGAGCAUCA
B6: chr11:100879890:100879891:+_ENSMUSG00000019302_ENSMUST00000044721|mus_hu|FALSE|FALSE (ssRNA)
RNA: GGGAGUUCUACAGUCCGACGAUCUUGGAAAACAUUCACAUCUGGAUUUAAGUCACGAAACUGAACCUUUCCAAGUUCUCCUAAUUCACUGACACAACAAUAAGCAGCCUCUGACUGUAGAAAAAGCUGGGCCAGUGUCAUUUCCAACAGAGGAUUGAGCAUCA

Each binder was assayed against T1, UNK ZnF1-3 (assay: nsRBNS (natural sequence RNA bind-n-seq); RBNS binding buffer (assumed for nsRBNS): 25 mM Tris pH 7.5, 150 mM KCl, 3 mM MgCl2, 0.01% Triton X-100, 500 ug/ml BSA, 20 U/ml SUPERase-In, 4 C; UNK is unkempt and MSI1 is Musashi-1; names of the RNAs are library labels; protein concentration not given here; high values mean tight binding).

| Binder | binding signal [enrichment R] |
| --- | --- |
| B1 | 1.5 |
| B2 | 0.366 |
| B3 | 1.27 |
| B4 | 0.548 |
| B5 | 1.62 |
| B6 | 0.651 |
